# Results published in PubChem BioAssay AID504832 (National Center for Advancing Translational Sciences (NCATS), 2011).
# Hit rate of the full screen: of about 310,000 compounds, about 18,000 (5.8%) were called active. This list was built around the results that the source calls inconclusive (neither active nor inactive); the mix of calls is not that of the screen. Calls follow the shape of the dose curve; as a rule, active = well fitted inhibition curve with a large enough effect; inconclusive = small, poorly fitted or top-dose-only effect, or another doubt; inactive = no such curve, though single readings can be large or run the other way. No potency is given beside an inconclusive call; the fits are too rough.
# Test: Primary qHTS for delayed death inhibitors of the malarial parasite plastid, 48 hour incubation
# Settings: P. falciparum luciferase growth in erythrocytes; series mostly up to 28.7 µM
# Method in brief: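 Parasite viability was followed by luminescence of a genomically integrated firefly luciferase. Cultures held 0.1% parasitemia at 2% hematocrit (final), incubated under 5% CO2 at 37 C.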
# Potency is read from the fitted curve at half-maximal effect; tags tell the direction and shape of the fitted curve.
row,SMILES,Potency
1,COc1ccc(CN2CC(=O)N(c3cccc(Cl)c3)C2=S)cc1OC,active: 10.4 µM
2,C=CCn1c(C)cc(C2=NNC(=Nc3ccc(C)cc3)SC2)c1C,"inconclusive [inhibitor, partial curve]"
3,O=C(Oc1ccc2c(c1)OCO2)c1cc2c(s1)CCC2,"inconclusive [inhibitor, single point]"
4,Cc1cc(C)n2nc(SCC(=O)Nc3ccc(F)c(F)c3F)nc2n1,"inconclusive [inhibitor, single point]"
5,COC(=O)C1=C(C)N(CCC2=CCCCC2)C(=O)C1,inactive
6,CCN(CC(=O)Nc1c(F)cccc1F)C(=O)c1ccc(-c2ccc(C(C)=O)cc2)o1,"inconclusive [inhibitor, single point]"
7,Cc1ccc(/C=C/C(=O)Nc2ccc([N+](=O)[O-])cc2)o1,inactive
8,CC1CCCCN1C(=O)CSc1nc2cc3c(cc2c(=O)n1Cc1ccc2c(c1)OCO2)OCO3 (stereo unspecified),"inconclusive [inhibitor, partial curve]"
9,Cc1ccc(S(=O)(=O)N2CCC(C(=O)N/N=C/c3ccncc3)CC2)cc1,"inconclusive [inhibitor, partial curve, poor fit]"
10,COc1ccc(-c2csc(C3=C(O)CN(Cc4ccc(Cl)cc4)C3=N)n2)cc1OC,"inconclusive [inhibitor, single point]"
11,Cn1c(=O)c(C(=O)CN2CCCc3ccccc32)c(N)n(Cc2ccccc2)c1=O,"inconclusive [inhibitor, partial curve]"
12,CN(C)c1ccc(-c2ccc([C@H]3[C@@H]4C=CCC[C@@]4(C)C(=O)N3Cc3ccccc3)c(F)c2)cc1,active: 9.28 µM
13,COc1ccccc1-c1nc(C#N)c(N2CCN(c3cccc(Cl)c3)CC2)o1,"inconclusive [inhibitor, single point]"
14,CC1CCN(CC(=O)N2c3ccccc3CCc3ccccc32)CC1,active: 14.7 µM
15,C=CCN(Cc1cc(OC)ccc1OC)C(=O)c1cc2ccc(OC)cc2[nH]1,"inconclusive [inhibitor, single point]"
16,S=c1nc(C2CC2)[nH]c2ccccc12,inactive
17,COc1ccc(NC(=O)N2CCN(c3ccc([N+](=O)[O-])cc3)CC2)cc1,inactive
18,Cc1c(C)c2c(c(C)c1O)CC[C@@](C)(CCC[C@@H](C)CCC[C@@H](C)CCCC(C)C)O2,inactive
19,Cc1cc(Br)cc2c1NC(=O)C2(c1c(C)n(C)n(-c2ccccc2)c1=O)c1c(C)n(C)n(-c2ccccc2)c1=O,"inconclusive [inhibitor, partial curve, poor fit]"
20,Cc1cccc(N(C(=O)Cn2nnc3ccccc32)C(C(=O)NCc2ccco2)c2ccncc2)c1 (stereo unspecified),inactive
21,Cc1ccc(NC(CNS(=O)(=O)c2ccc(Cl)cc2)c2ccccc2)cc1 (stereo unspecified),inactive
22,O=c1[nH]c2ccccc2nc1/C=C/c1ccc(O)cc1,"inconclusive [inhibitor, single point]"
23,O=C(/C=C\Nc1ccccc1Br)c1ccc2c(c1)OCO2,inactive
24,CCCOc1ccc(C2C(=O)N(C3CCCCC3)CC(=O)N2CCCOCC)cc1OC (stereo unspecified),"inconclusive [inhibitor, partial curve, poor fit]"

row,SMILES,Potency
1,CC1=C(C(=O)Nc2ccccc2F)C(c2ccsc2)C2=C(CC(C)(C)CC2=O)N1 (stereo unspecified),"inconclusive [inhibitor, single point]"
2,COC(=O)Cc1nc2ccccc2[nH]1,"inconclusive [inhibitor, single point]"
3,Cc1ccc(-c2nnn(CC(=O)N(CC(=O)NC3CCCC3)c3ccc(F)c(Cl)c3)n2)o1,active: 9.28 µM
4,CCSc1nc2c(c(=O)n1Cc1ccccc1)SC(C)C2 (stereo unspecified),"inconclusive [inhibitor, partial curve]"
5,CC(C)c1ccccc1NC(=O)COC(=O)c1c2c(nc3ccccc13)CCN(Cc1ccccc1)C2,active: 8.28 µM
6,CC1(C)Cc2ccccc2-c2nnc(-c3cccnc3)n21,active: 2.33 µM
7,Nc1ccccc1C(=O)NNc1c2ccccc2nc2ccccc12,"inconclusive [inhibitor, single point]"
8,Cc1cc(C(=O)C[N+]2(C)CCOCC2)c(C)n1-c1ccc(Br)cc1,"inconclusive [inhibitor, single point]"
9,CC(=O)c1cccc(NS(=O)(=O)c2ccc(NC(=O)N3CCCCC3)cc2)c1,inactive
10,Cc1cccc(N2CCN(C(=O)C3CC(=O)N(C4CCCC4)C3)CC2)c1C (stereo unspecified),inactive
11,COc1ccc(C(=O)NNC(=O)c2cc(C)[nH]n2)cc1,inactive
12,COC(=O)[C@@]12CCCN1[C@H](c1ccc(-c3cccc(Cl)c3)cc1)[C@H]1C(=O)N(C)C(=O)[C@H]12,active: 6.57 µM
13,CCCCCCC(=O)Nc1nc(C)c(-c2csc(Nc3cc(OC)ccc3OC)n2)s1,active: 7.38 µM
14,O=C(O)c1ccc(-c2nc(-c3cccc(C(F)(F)F)c3)cs2)cc1,inactive
15,Cc1cc(C)nc(Nc2n[nH]c(-c3ccc(C(C)(C)C)cc3)n2)n1,"inconclusive [inhibitor, single point]"
16,Cn1c(CN2CCCCC2)nc2cc(NC(=O)c3ccc(Cl)cc3)ccc21,"inconclusive [inhibitor, single point]"
17,Cc1cc(C)cc(C(=O)Nn2cnnc2)c1,inactive
18,COC(=O)c1c(-c2ccc(C(C)(C)C)cc2)csc1NC(=O)C1C2CCC(O2)C1C(=O)O (stereo unspecified),"inconclusive [inhibitor, single point]"
19,Cc1ccc(-n2c(C)cc(C3N=C(N)Nc4nc5ccccc5n43)c2C)c(C)c1 (stereo unspecified),active: 8.28 µM
20,Cc1ccc2nc(NC(=O)CS(=O)(=O)Cc3ccccc3)sc2c1,inactive
21,O=C(Nc1ccccc1)Nc1nc(-c2ccc(F)c(F)c2)cs1,active: 11.7 µM
22,Cc1cc(-c2nc(C)c(-c3nnc(SCC(=O)Nc4cc(Cl)cc(Cl)c4)n3C)s2)no1,"inconclusive [inhibitor, partial curve, poor fit]"
23,CCOC(=O)c1ccc(NC(=O)CC2C(=O)N(c3ccc(F)cc3)C(=O)N2CCCOC)cc1 (stereo unspecified),"inconclusive [inhibitor, full curve]"
24,COCCN(C(=O)CCC(=O)Nc1ccccn1)C(C(=O)NC(C)(C)C)c1ccc(OC)cc1 (stereo unspecified),inactive

row,SMILES,Potency
1,Cc1ccccc1CSc1nnc(CCCCCNC(=O)OC(C)(C)C)o1,"inconclusive [inhibitor, partial curve, poor fit]"
2,CC(C)C[C@H](NC(=O)c1nc[nH]c1C(=O)N[C@@H](CC(C)C)C(=O)OC(C)(C)C)C(=O)OC(C)(C)C,active: 6.57 µM
3,COc1cc2oc3ccccc3c2cc1N(CC(=O)N(C)C)S(=O)(=O)c1ccc(C)cc1,"inconclusive [inhibitor, partial curve]"
4,CSc1ccc(CCNC(=O)c2nn(C)c3c2CS(=O)(=O)c2ccccc2-3)cc1,"inconclusive [inhibitor, partial curve]"
5,CC(C)c1ccc(C2c3[nH]c4ccccc4c3C[C@H]3C(=O)N(c4ccccc4C(=O)N4CCC[C@H]4C(=O)O)C(=O)N23)cc1 (stereo partly specified),active: 6.57 µM
6,CCc1cccc(CC)c1NC(=O)Cn1c(-c2ccc(F)cc2)noc1=O,"inconclusive [inhibitor, single point]"
7,CCOCCn1ccc2c(OCC(=O)NCc3ccccc3)cccc2c1=O,"inconclusive [inhibitor, partial curve]"
8,CCOC(=O)N1CCC(NC(=O)c2ccc3c(c2)N(C)C(=O)/C(=C/c2cccc(OC)c2)S3)CC1,"inconclusive [inhibitor, partial curve]"
9,CC(/C=N/NC(=O)c1cc(-c2cccs2)[nH]n1)=C\c1ccccc1,inactive
10,CC(C)c1ccc(N(C(=O)c2cc3ccccc3oc2=O)C2C=CS(=O)(=O)C2)cc1 (stereo unspecified),"inconclusive [inhibitor, single point]"
11,NC(=O)C1(NC(=O)[C@@H]2CC3(CC(c4cccc(NC(=O)[C@@H]5CCC(=O)N5)c4)=NO3)CN2C(=O)Cc2ccc(Cl)cc2)CC1 (stereo partly specified),"inconclusive [inhibitor, partial curve, poor fit]"
12,CCCc1nnc(NC(=O)CN2CCOCC2)s1,inactive
13,Cc1ccc(-c2nc(N3CCOCC3)sc2C(=O)N2CCOCC2)cc1,inactive
14,OC[C@@H](O)[C@@H](O)CO,inactive
15,Cc1[nH]c2ccccc2c1/C=N/NC(=O)c1cc(C(C)(C)C)[nH]n1,"inconclusive [inhibitor, single point]"
16,N#C/C(=C\c1cccnc1)c1ccccc1[N+](=O)[O-],"inconclusive [inhibitor, partial curve]"
17,COc1cc(C(=O)Nc2nc3ccccc3s2)ccc1OCc1c(C)noc1C,active: 11.7 µM
18,CC(=O)c1c(C)[nH]c(C(=O)NNC(=O)COc2ccc(Cl)cc2C)c1C,"inconclusive [inhibitor, single point]"
19,O=[N+]([O-])c1cnc(Sc2ccncn2)s1,inactive
20,CCCOc1ccc(/C=N/NC(=O)C2CC2)c(OCCC)c1,active: 11.7 µM
21,Nc1cc(N)c(OCC(F)(F)F)cc1OCC(F)(F)F,inactive
22,CCn1cc(S(=O)(=O)CC(=O)Nc2ccc3c(c2)OCO3)c2ccccc21,"inconclusive [inhibitor, partial curve]"
23,Cc1c(OCC(F)(F)F)ccnc1CSc1nc2ccccc2[nH]1,"inconclusive [inhibitor, single point]"
